PMC11840927

T1: E. coli cysteine desulfurase IscS with a His-tag (E. coli), P0A6B7
T1 chain: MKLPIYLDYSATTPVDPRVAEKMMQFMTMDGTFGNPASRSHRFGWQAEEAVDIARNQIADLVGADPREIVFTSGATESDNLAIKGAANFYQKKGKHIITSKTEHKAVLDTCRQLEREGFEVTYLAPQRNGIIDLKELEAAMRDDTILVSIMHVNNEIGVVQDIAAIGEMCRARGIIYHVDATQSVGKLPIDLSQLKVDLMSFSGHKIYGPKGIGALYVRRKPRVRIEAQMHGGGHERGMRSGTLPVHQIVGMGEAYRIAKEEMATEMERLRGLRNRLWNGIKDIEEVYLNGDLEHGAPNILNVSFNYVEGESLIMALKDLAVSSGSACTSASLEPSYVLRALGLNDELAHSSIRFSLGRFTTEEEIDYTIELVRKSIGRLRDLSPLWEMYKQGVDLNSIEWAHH

T2: E. coli cysteine desulfurase IscS without a His-tag (E. coli), P0A6B7
T2 chain: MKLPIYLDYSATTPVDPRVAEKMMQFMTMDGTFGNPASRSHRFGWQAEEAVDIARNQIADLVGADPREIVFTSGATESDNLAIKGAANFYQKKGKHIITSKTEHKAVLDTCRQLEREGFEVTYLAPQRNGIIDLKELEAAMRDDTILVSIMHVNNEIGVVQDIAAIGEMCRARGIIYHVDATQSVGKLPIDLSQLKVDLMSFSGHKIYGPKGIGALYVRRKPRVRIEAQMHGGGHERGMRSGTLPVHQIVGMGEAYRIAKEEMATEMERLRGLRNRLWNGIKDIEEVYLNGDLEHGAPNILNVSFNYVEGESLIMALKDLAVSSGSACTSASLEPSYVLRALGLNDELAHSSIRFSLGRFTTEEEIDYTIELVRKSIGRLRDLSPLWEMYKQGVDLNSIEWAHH


Tests used:
[1] = biological target: T1, E. coli cysteine desulfurase IscS with …; assay: native MS; protomer exchange: 1:1 mix of 15N- and 14N-labelled SDAec (or His-tagged and untagged IscS), room temperature, 200 mM ammonium acetate pH 8.5, EMR Orbitrap; ratio of exchanged dimer to the sum of unexchanged dimers; α2β2γ2 (or IscS dimer) to protomers and back; details: remark: other sources report otherwise
[2] = biological target: T2, E. coli cysteine desulfurase IscS …; assay: as above; details: remark: other sources report otherwise

Row | Binder | exchanged-to-unexchanged ratio at 120 min [1] | stoichiometry N [2] | stoichiometry N [1]
1 | E. coli cysteine desulfurase IscS without a His-tag, P0A6B7 1-404 (enzyme, here or on the partner: PLP cofactor; PLP cofactor) MKLPIYLDYSATTPVDPRVAEKMMQFMTMDGTFGNPASRSHRFGWQAEEAVDIARNQIADLVGADPREIVFTSGATESDNLAIKGAANFYQKKGKHIITSKTEHKAVLDTCRQLEREGFEVTYLAPQRNGIIDLKELEAAMRDDTILVSIMHVNNEIGVVQDIAAIGEMCRARGIIYHVDATQSVGKLPIDLSQLKVDLMSFSGHKIYGPKGIGALYVRRKPRVRIEAQMHGGGHERGMRSGTLPVHQIVGMGEAYRIAKEEMATEMERLRGLRNRLWNGIKDIEEVYLNGDLEHGAPNILNVSFNYVEGESLIMALKDLAVSSGSACTSASLEPSYVLRALGLNDELAHSSIRFSLGRFTTEEEIDYTIELVRKSIGRLRDLSPLWEMYKQGVDLNSIEWAHH | 0.31 | 2 | 
2 | E. coli cysteine desulfurase IscS with a His-tag, P0A6B7 1-404 (enzyme, here or on the partner: PLP cofactor; PLP cofactor) MKLPIYLDYSATTPVDPRVAEKMMQFMTMDGTFGNPASRSHRFGWQAEEAVDIARNQIADLVGADPREIVFTSGATESDNLAIKGAANFYQKKGKHIITSKTEHKAVLDTCRQLEREGFEVTYLAPQRNGIIDLKELEAAMRDDTILVSIMHVNNEIGVVQDIAAIGEMCRARGIIYHVDATQSVGKLPIDLSQLKVDLMSFSGHKIYGPKGIGALYVRRKPRVRIEAQMHGGGHERGMRSGTLPVHQIVGMGEAYRIAKEEMATEMERLRGLRNRLWNGIKDIEEVYLNGDLEHGAPNILNVSFNYVEGESLIMALKDLAVSSGSACTSASLEPSYVLRALGLNDELAHSSIRFSLGRFTTEEEIDYTIELVRKSIGRLRDLSPLWEMYKQGVDLNSIEWAHH |  |  | 2
